Here are results for 74 sequences from publication PMC5892938.

The other results are listed elsewhere or left out. At the low end of the ranking the order means little.

The test concerns the target GST-SBP-SLBP (stem-loop binding protein) (UniProt Q14493). Put plainly: targeted RNA Bind-n-Seq.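 Further: DESeq read counts versus GST-SBP nonspecific binding control pulldown.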 To be noted: RBNS binding buffer: 25 mM Tris pH 7.5, 150 mM KCl, 3 mM MgCl2, 0.1% Tween, 0.5 mg/mL BSA, 1 mM DTT; 27 nM protein, 750 pM RNA pool; temperature not stated; high values mean tight binding.
Take “GGUCACGUCUCAAUCAACUCUAUUCCAGGAGUUUUCUCCUGUUUUGUCAACAGCUCGCAGUCAAG”: the binding signal (log2 fold change) is -0.0833.

Regarding “GGUCACGUCUCAAUCAACUCAAUUUCAGGAGUUUACUCCUGCUAACUCAACAGCUCGCAGUCAAG”, the binding signal (log2 fold change) worked out at 0.0151.

With “GGUCACGUCUCAAUCAACUCUAUCUCCAGGGAAAUCCCUGGUUUAUUCAACAGCUCGCAGUCAAG”, the binding signal (log2 fold change) was -0.218. “GGUCACGUCUCAAUCAACUCAUGUCCAGGAGUUUUCUCCUGUUAUCUCAACAGCUCGCAGUCAAG”: the binding signal (log2 fold change) is -0.11. “GGUCACGUCUCAAUCAACUCUUCUUCAGGAGUUUACUCCUGCAAAUUCAACAGCUCGCAGUCAAG”: the binding signal (log2 fold change) turned out to be 0.105. As for “GGUCACGUCUCAAUCAACUCAUCGUCCAGGGAAACCCCUGGUAAUUUCAACAGCUCGCAGUCAAG”, the binding signal (log2 fold change) is -0.289. With “GGUCACGUCUCAAUCAACUCUAUAGAGGGGGGGAAAACCCCUUUACCCUCCGUUUCAACAGCUCGCAGUCAAG”, the binding signal (log2 fold change) amounted to 0.0749.

As for “GGUCACGUCUCAAUCAACUCUAUCUCCAGGGAAAACCCUGGUAUUUUCAACAGCUCGCAGUCAAG”, the binding signal (log2 fold change) amounted to 0.0844.

As to “GGUCACGUCUCAAUCAACUCAAUCCCAGGAGUUUUCUCCUGUUUACUCAACAGCUCGCAGUCAAG”, the binding signal (log2 fold change) worked out at 0.2. Next, “GGUCACGUCUCAAUCAACUCAUCGUCAGGAGUUUCCUCCUGUUUAUUCAACAGCUCGCAGUCAAG”: -0.231; “GGUCACGUCUCAAUCAACUCAUCCCCCAGGGAAAGCCCUGGCAUUCUCAACAGCUCGCAGUCAAG”: -0.00359. For “GGUCACGUCUCAAUCAACUCAUAAGAGGGGGGGAAAACCCCUUUACCCUCCAACUCAACAGCUCGCAGUCAAG”, the binding signal (log2 fold change) was 0.0729. Take “GGUCACGUCUCAAUCAACUCAUCUUCCAGGGAAAGCCCUGGUUUACUCAACAGCUCGCAGUCAAG”: the binding signal (log2 fold change) turned out to be 0.000628.

Regarding “GGUCACGUCUCAAUCAACUCAACUUCAGGAGUUUUCUCCUGUUUUUUCAACAGCUCGCAGUCAAG”, the binding signal (log2 fold change) is -0.121. Take “GGUCACGUCUCAAUCAACUCCUAAGAGGGGGGGAAAACCCCUUUGCCCUCACUAUCAACAGCUCGCAGUCAAG”: the binding signal (log2 fold change) was -0.218.

On to “GGUCACGUCUCAAUCAACUCUAGUCCAGGAGUUUACUCCUGUUUUUUCAACAGCUCGCAGUCAAG”, for which the binding signal (log2 fold change) is -0.279. With “GGUCACGUCUCAAUCAACUCUAUCUCAGGAGUUUCCUCCUGCAUAUUCAACAGCUCGCAGUCAAG”, the binding signal (log2 fold change) amounted to 0.0598.

With “GGUCACGUCUCAAUCAACUCUUCUUCCAGGGAAAGCCCUGGUAUUUUCAACAGCUCGCAGUCAAG”, the binding signal (log2 fold change) is -0.0795.

As for “GGUCACGUCUCAAUCAACUCAUCCCCAGGAGUUUUCUCCUGCUAACUCAACAGCUCGCAGUCAAG”, the binding signal (log2 fold change) was 0.0368.

On to “GGUCACGUCUCAAUCAACUCAACUUCAGGAGUUUACUCCUGCUAACUCAACAGCUCGCAGUCAAG”, for which the binding signal (log2 fold change) was determined as 0.113.

On to “GGUCACGUCUCAAUCAACUCAUUAGAGGGGGGGAAAACCCCUUUGCCCUCAUACUCAACAGCUCGCAGUCAAG”, for which the binding signal (log2 fold change) came out at 0.461.

Take “GGUCACGUCUCAAUCAACUCUUCUUCAGGAGUUUUCUCCUGCUUUUUCAACAGCUCGCAGUCAAG”: the binding signal (log2 fold change) was -0.0966. Regarding “GGUCACGUCUCAAUCAACUCGUUUUCAGGAGUUUCCUCCUGCUUUCUCAACAGCUCGCAGUCAAG”, the binding signal (log2 fold change) amounted to 0.0939. As for “GGUCACGUCUCAAUCAACUCUACUUCAGGAGUUUUCUCCUGCAAUUUCAACAGCUCGCAGUCAAG”, the binding signal (log2 fold change) is 0.0407. With “GGUCACGUCUCAAUCAACUCUUUCCCCAGGGAAAACCCUGGCUUUCUCAACAGCUCGCAGUCAAG”, the binding signal (log2 fold change) is -0.463. Turning to “GGUCACGUCUCAAUCAACUCCUUCGAGGGGGGGAAAACCCCUUUACCCUCUUUAUCAACAGCUCGCAGUCAAG”, the binding signal (log2 fold change) was 0.0584. With “GGUCACGUCUCAAUCAACUCAAUAGAGGGGGGGAAAACCCCUUUACCCUCGUCAUCAACAGCUCGCAGUCAAG”, the binding signal (log2 fold change) is -0.00109. Consider “GGUCACGUCUCAAUCAACUCUUUAGAGGGGGGGAAAACCCCUUUACCCUCGUCUUCAACAGCUCGCAGUCAAG”, for which the binding signal (log2 fold change) is -0.0358. Next, “GGUCACGUCUCAAUCAACUCAUUUUCCAGGGAAAACCCUGGUAAUCUCAACAGCUCGCAGUCAAG”: 0.124; “GGUCACGUCUCAAUCAACUCAGUCCCCAGGGAAAACCCUGGCUUUUUCAACAGCUCGCAGUCAAG”: -0.238. Next, “GGUCACGUCUCAAUCAACUCUUUUCCCAGGGAAAACCCUGGCUAUGUCAACAGCUCGCAGUCAAG”: -0.00383. Next, “GGUCACGUCUCAAUCAACUCUACUCCCAGGGAAAGCCCUGGUUUAUUCAACAGCUCGCAGUCAAG”: -0.196; “GGUCACGUCUCAAUCAACUCUUUUUCCAGGGAAAGCCCUGGUUUACUCAACAGCUCGCAGUCAAG”: 0.0963. Consider “GGUCACGUCUCAAUCAACUCAGUUCCCAGGGAAAACCCUGGCUUAUUCAACAGCUCGCAGUCAAG”, for which the binding signal (log2 fold change) was -0.0221. As for “GGUCACGUCUCAAUCAACUCAACUCCAGGAGUUUUCUCCUGCUAAUUCAACAGCUCGCAGUCAAG”, the binding signal (log2 fold change) was determined as 0.00114. Next, “GGUCACGUCUCAAUCAACUCUAUCUCCAGGGAAAGCCCUGGUUAAUUCAACAGCUCGCAGUCAAG”: -0.0695; “GGUCACGUCUCAAUCAACUCAUCUUCAGGAGUUUUCUCCUGCUAUGUCAACAGCUCGCAGUCAAG”: 0.17; “GGUCACGUCUCAAUCAACUCUUCGUCCAGGGAAAACCCUGGCUAAUUCAACAGCUCGCAGUCAAG”: 0.0448. “GGUCACGUCUCAAUCAACUCCUAAGAGGGGGGGAAAACCCCUUUGCCCUCAUCAUCAACAGCUCGCAGUCAAG”: the binding signal (log2 fold change) is -0.174. “GGUCACGUCUCAAUCAACUCCCAAAGGUUUUUUUAAGAGCCACCCAUCAACAGCUCGCAGUCAAG”: the binding signal (log2 fold change) is 0.54.

For “GGUCACGUCUCAAUCAACUCUAAAGAGGGGGGGAAAACCCCUUUACCCUCCAUGUCAACAGCUCGCAGUCAAG”, the binding signal (log2 fold change) was -0.122. Consider “GGUCACGUCUCAAUCAACUCAUCUCCCAGGGAAAACCCUGGCUUAUUCAACAGCUCGCAGUCAAG”, for which the binding signal (log2 fold change) is -0.232. For the sequence “GGUCACGUCUCAAUCAACUCUUUUCCCAGGGAAAGCCCUGGCUUAUUCAACAGCUCGCAGUCAAG”, the binding signal (log2 fold change) was found to be 0.153.

Turning to “GGUCACGUCUCAAUCAACUCAUUCCCAGGAGUUUUCUCCUGCAAACUCAACAGCUCGCAGUCAAG”, the binding signal (log2 fold change) amounted to 0.0145.

As for “GGUCACGUCUCAAUCAACUCCCACGAGGGGGGGAAAACCCCUUUACCCUCUUAAUCAACAGCUCGCAGUCAAG”, the binding signal (log2 fold change) was found to be 0.0141.

As for “GGUCACGUCUCAAUCAACUCUAUCUCAGGAGUUUUCUCCUGCAAUGUCAACAGCUCGCAGUCAAG”, the binding signal (log2 fold change) was -0.0446. On to “GGUCACGUCUCAAUCAACUCAUUUUCCAGGGAAACCCCUGGCUUAGUCAACAGCUCGCAGUCAAG”, for which the binding signal (log2 fold change) is 0.294. Next, “GGUCACGUCUCAAUCAACUCUUUUCCCAGGGAAAUCCCUGGUUUACUCAACAGCUCGCAGUCAAG”: -0.0531; “GGUCACGUCUCAAUCAACUCAUUCCCCAGGGAAAACCCUGGCAAAUUCAACAGCUCGCAGUCAAG”: -0.0194. For “GGUCACGUCUCAAUCAACUCAUGUCCAGGAGUUUUCUCCUGUUAUUUCAACAGCUCGCAGUCAAG”, the binding signal (log2 fold change) was -0.184.

For the sequence “GGUCACGUCUCAAUCAACUCAAUCUCCAGGGAAAGCCCUGGUAAAUUCAACAGCUCGCAGUCAAG”, the binding signal (log2 fold change) was -0.0372. For “GGUCACGUCUCAAUCAACUCAGUCCCCAGGGAAAACCCUGGUAAAUUCAACAGCUCGCAGUCAAG”, the binding signal (log2 fold change) was -0.104.

As for “GGUCACGUCUCAAUCAACUCUACUCCAGGAGUUUACUCCUGUAAUCUCAACAGCUCGCAGUCAAG”, the binding signal (log2 fold change) stood at 0.165.

Take “GGUCACGUCUCAAUCAACUCUCUCGAGGGGGGGAAAACCCCUUUACCCUCAUUCUCAACAGCUCGCAGUCAAG”: the binding signal (log2 fold change) stood at 0.282. For “GGUCACGUCUCAAUCAACUCACUAGAGGGGGGGAAAACCCCUUUACCCUCAAAUUCAACAGCUCGCAGUCAAG”, the binding signal (log2 fold change) came out at 0.00988. Take “GGUCACGUCUCAAUCAACUCACUAGAGGGGGGGAAAACCCCUUUGCCCUCGAAUUCAACAGCUCGCAGUCAAG”: the binding signal (log2 fold change) was -0.0769.

In the case of “GGUCACGUCUCAAUCAACUCUUCGCCAGGAGUUUUCUCCUGUAUUUUCAACAGCUCGCAGUCAAG”, the binding signal (log2 fold change) was -0.297. Regarding “GGUCACGUCUCAAUCAACUCAUCUUCCAGGGAAAACCCUGGCAUUCUCAACAGCUCGCAGUCAAG”, the binding signal (log2 fold change) came to 0.186.

For the sequence “GGUCACGUCUCAAUCAACUCAUCCUCCAGGGAAAGCCCUGGCAUUUUCAACAGCUCGCAGUCAAG”, the binding signal (log2 fold change) turned out to be 0.259. Turning to “GGUCACGUCUCAAUCAACUCAAUUCCCAGGGAAAUCCCUGGUUUUUUCAACAGCUCGCAGUCAAG”, the binding signal (log2 fold change) was -0.178. Regarding “GGUCACGUCUCAAUCAACUCAAUCCCCAGGGAAAUCCCUGGUAAUCUCAACAGCUCGCAGUCAAG”, the binding signal (log2 fold change) was -0.0165. In the case of “GGUCACGUCUCAAUCAACUCUACUCCAGGAGUUUACUCCUGCAAUUUCAACAGCUCGCAGUCAAG”, the binding signal (log2 fold change) was -0.176. Next, “GGUCACGUCUCAAUCAACUCGUCUUCAGGAGUUUACUCCUGCUUUUUCAACAGCUCGCAGUCAAG”: 0.115; “GGUCACGUCUCAAUCAACUCAAUGUCAGGAGUUUGCUCCUGCUUUUUCAACAGCUCGCAGUCAAG”: -0.243; “GGUCACGUCUCAAUCAACUCUUCGCCAGGAGUUUUCUCCUGUAUACUCAACAGCUCGCAGUCAAG”: 0.0185. Next, “GGUCACGUCUCAAUCAACUCACAUGAGGGGGGGAAAACCCCUUUACCCUCCACAUCAACAGCUCGCAGUCAAG”: -0.0622; “GGUCACGUCUCAAUCAACUCAUCUUCCAGGGAAAUCCCUGGUAAACUCAACAGCUCGCAGUCAAG”: 0.0742.

Turning to “GGUCACGUCUCAAUCAACUCAUUCCCCAGGGAAACCCCUGGUAAUCUCAACAGCUCGCAGUCAAG”, the binding signal (log2 fold change) was -0.072.

As for “GGUCACGUCUCAAUCAACUCAUCCUCCAGGGAAAUCCCUGGUUAUCUCAACAGCUCGCAGUCAAG”, the binding signal (log2 fold change) was -0.0604. With “GGUCACGUCUCAAUCAACUCAAUGGAGGGGGGGAAAACCCCUUUACCCUCACUAUCAACAGCUCGCAGUCAAG”, the binding signal (log2 fold change) is -0.0826. Next, “GGUCACGUCUCAAUCAACUCUUUCCCAGGAGUUUUCUCCUGCAAUUUCAACAGCUCGCAGUCAAG”: -0.118; “GGUCACGUCUCAAUCAACUCUUCCCCCAGGGAAAGCCCUGGCUUAUUCAACAGCUCGCAGUCAAG”: -0.115.

As for “GGUCACGUCUCAAUCAACUCAUCUCCAGGAGUUUUCUCCUGUAUUCUCAACAGCUCGCAGUCAAG”, the binding signal (log2 fold change) was 0.161.

As for “GGUCACGUCUCAAUCAACUCUACGCCAGGAGUUUUCUCCUGUUAUCUCAACAGCUCGCAGUCAAG”, the binding signal (log2 fold change) is -0.151.
